Measured values from patent US20190284241A1 (Affibody, published 2019).

Biological target: T1, human FcRn: extracellular domain of human αFcRn in complex with human β2-microglobulin, soluble, produced in … (human, UniProt P55899 24-290; P16213 21-119)
T1 construct: Ig kappa leader cleaved upon secretion; amine-coupled to the chip in Biacore; also called hFcRn; not shown: C-terminal GS-linker and FLAG tag; C-terminal spacer and His6 tag
Assay: SPR (Biacore); hFcRn immobilised, injected at 40, 160 and 640 nM; pH 6.0

binding result: no binding (tested: 640 nM)
B1: negative control Z03638-PP013, [Z03638]-GAP(G4S)4TS-[PP013] (designed binder)
chain: AEAKYAKELGWATWEIFNLPNLTGVQVKAFIDKLRDDPSQSSELLSEAKKLNDSQAPKGAPGGGGSGGGGSGGGGSGGGGSTSLAEAKEAANAELDSYGVSDFYKRLIDKAKTVEGVEALKDAILAALP
